Measurements from publication PMC7462304.
Results are given in words; binding and its absence hold for the method and conditions named. Binding seen in cells or lysates may run through a third protein. Some binding calls cover weakened binding; strength is not graded here. For some assays here: Tags and fused reporters may be left off the sequences shown.

Chains of the proteins cited; added tags and fusions are not shown.
UniProt Q8K1M6: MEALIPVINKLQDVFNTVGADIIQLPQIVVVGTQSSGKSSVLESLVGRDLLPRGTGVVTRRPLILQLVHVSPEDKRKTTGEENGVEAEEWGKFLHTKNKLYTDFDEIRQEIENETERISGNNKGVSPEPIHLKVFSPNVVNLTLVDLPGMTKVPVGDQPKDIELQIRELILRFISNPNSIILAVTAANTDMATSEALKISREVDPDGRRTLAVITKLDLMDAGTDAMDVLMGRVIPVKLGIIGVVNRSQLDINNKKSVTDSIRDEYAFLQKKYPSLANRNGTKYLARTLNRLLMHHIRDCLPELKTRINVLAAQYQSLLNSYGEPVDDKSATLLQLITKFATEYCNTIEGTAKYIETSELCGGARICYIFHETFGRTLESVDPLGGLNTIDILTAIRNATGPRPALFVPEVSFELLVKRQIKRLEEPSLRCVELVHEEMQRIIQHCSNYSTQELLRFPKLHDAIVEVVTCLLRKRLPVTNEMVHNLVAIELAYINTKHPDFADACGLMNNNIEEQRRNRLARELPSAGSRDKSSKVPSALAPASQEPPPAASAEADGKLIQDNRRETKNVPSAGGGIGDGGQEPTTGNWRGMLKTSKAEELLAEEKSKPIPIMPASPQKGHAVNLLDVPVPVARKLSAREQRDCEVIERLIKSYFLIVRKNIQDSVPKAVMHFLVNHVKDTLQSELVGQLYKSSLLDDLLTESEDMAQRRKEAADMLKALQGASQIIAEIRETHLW
UniProt P63242: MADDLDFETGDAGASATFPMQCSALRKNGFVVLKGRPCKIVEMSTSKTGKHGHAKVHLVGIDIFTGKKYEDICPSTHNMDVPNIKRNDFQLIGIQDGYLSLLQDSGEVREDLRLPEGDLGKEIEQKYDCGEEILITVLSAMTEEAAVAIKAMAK

Key:
[1] = target: T1, mitofusin 1 (mouse (endogenous in mouse VSMCs)) (UniProt Q811U4); assay: proximity ligation; Duolink in situ PLA with anti-eIF5a (mouse) and anti-Mfn1 (rabbit) in paraformaldehyde-fixed mouse VSMCs treated with Ang II (100 nmol/L) for the indicated times
T1 sequence: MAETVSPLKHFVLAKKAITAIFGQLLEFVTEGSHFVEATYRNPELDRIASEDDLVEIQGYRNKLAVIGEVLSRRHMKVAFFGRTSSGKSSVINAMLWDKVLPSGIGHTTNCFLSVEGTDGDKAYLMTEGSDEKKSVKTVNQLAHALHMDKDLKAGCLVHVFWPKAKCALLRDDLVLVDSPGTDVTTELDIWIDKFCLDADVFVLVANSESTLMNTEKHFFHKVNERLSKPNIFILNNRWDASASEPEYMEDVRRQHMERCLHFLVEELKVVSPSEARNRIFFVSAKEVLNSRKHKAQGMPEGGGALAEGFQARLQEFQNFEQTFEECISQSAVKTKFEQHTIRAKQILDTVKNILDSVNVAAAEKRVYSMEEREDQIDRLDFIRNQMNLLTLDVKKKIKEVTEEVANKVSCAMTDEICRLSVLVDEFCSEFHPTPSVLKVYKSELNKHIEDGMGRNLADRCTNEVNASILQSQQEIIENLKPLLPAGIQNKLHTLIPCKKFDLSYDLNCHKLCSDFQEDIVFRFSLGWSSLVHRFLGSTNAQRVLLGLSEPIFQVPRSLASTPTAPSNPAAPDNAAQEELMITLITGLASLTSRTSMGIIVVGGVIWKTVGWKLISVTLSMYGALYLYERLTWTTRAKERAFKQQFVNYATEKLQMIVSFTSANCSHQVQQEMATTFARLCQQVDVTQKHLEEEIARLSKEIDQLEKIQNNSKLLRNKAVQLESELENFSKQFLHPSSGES

[2] = target: dynamin-related protein 1 (not stated (endogenous in VSMCs; mouse and human VSMCs were cultured)) (UniProt Q8K1M6); assay: co-IP; reciprocal co-immunoprecipitation of endogenous proteins from lysates of VSMCs treated with Ang II (100 nmol/L) for the indicated times (0, 1, 5 days); antibody 1 hour at 4°C, protein A agarose overnight at 4°C, washed 5 times with cold RIPA buffer; IgG as negative control
[3] = target: T2, fission mitochondrial 1 (not stated (endogenous in VSMCs; mouse and human VSMCs were cultured)) (UniProt Q9CQ92); assay: as above
T2 sequence: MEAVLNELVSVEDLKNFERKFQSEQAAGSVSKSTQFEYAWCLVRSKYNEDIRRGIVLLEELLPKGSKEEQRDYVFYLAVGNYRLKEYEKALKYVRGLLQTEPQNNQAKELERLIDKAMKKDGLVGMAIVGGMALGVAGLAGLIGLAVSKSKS

[4] = target: T3, mitochondrial fission regulator 1 (not stated (endogenous in VSMCs; mouse and human VSMCs were cultured)) (UniProt Q99MB2); assay: as above
T3 sequence: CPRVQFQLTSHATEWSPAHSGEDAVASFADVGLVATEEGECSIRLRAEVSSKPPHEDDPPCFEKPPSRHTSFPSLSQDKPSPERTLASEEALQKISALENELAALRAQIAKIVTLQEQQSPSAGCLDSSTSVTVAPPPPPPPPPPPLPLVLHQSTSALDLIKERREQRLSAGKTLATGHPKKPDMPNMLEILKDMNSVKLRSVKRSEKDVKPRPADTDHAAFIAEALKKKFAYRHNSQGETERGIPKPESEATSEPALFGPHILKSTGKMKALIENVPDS

[5] = target: T1, mitofusin 1 (mouse (endogenous in mouse VSMCs)); assay: as above

binding [1]: binds
binding [2]: no binding
binding [3]: no binding
binding [4]: no binding
binding [5]: binds
Substance: eukaryotic translation initiation factor 5a (from UniProt P63242 1-154)
